Here are results for one molecule from PMC6707248.

Amino acid sequences for entries named in this document (tags omitted).
UniProt P06748: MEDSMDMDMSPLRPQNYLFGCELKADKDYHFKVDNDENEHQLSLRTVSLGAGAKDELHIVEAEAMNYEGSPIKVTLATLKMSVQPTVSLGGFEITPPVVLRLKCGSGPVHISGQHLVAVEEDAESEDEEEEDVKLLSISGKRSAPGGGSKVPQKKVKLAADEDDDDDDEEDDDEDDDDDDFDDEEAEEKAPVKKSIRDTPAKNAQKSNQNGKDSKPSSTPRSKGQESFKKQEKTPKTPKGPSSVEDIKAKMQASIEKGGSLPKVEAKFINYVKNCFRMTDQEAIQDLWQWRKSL

Results are given in words; binding and its absence hold for the method and conditions named. Where a sequence is shown, tags or fusion partners need not be part of it.

The assay deals with GST-NPM1 (unSUMOylated) (UniProt P06748). The experiment in a line: pull-down; GST pull-down; His-RAP80 FL or ΔSIM and GST-NPM1 purified from E. coli; GST-NPM1 SUMOylated in vitro or not; both purified.

B1: His-RAP80 ΔSIM (protein, UniProt Q96RL1)
chain: MPRRKKKVKEVSESRNLEKKDVETTSSVSVKRKRRLEDAGEEPKEENGLQKTKTKQSNRAKCLAKRKIAQMTEEEQFALALKMSEQEAREVNSQEEEEEELLRKAIAESLNSCRPSDASATRSRPLATGPSSQSHQEKTTDSGLTEGIWQLVPPSLFKGSHISQGNEAEEREEPWDHTEKTEEEPVSGSSGSWDQSSQPVFENVNVKSFDRCTGHSAEHTQCGKPQESTGRGSAFLKAVQGSGDTSRHCLPTLADAKGLQDTGGTVNYFWGIPFCPDGVDPNQYTKVILCQLEVYQKSLKMAQRQLLNKKGFGEPVLPRPPSLIQNECGQGEQASEKNECISEDMGDEDKEERQESRASDWHSKTKDFQESSIKSLKEKLLLEEEPTTSHGQSSQGIVEETSEEGNSVPASQSVAALTSKRSLVLMPESSAEEITVCPETQLSSSETFDLEREVSPGSRDILDGVRIIMADKEVGNKEDAEKEVAISTFSSSNQVSCPLCDQCFPPTKIERHAMYCNGLMEEDTVLTRRQKEAKTKSDSGTAAQTSLDIDKNEKCYLCKSLVPFREYQCHVDSCLQLAKADQGDGPEGSGRACSTVEGKWQQRLKNPKEKGHSEGRLLSFLEQSEHKTSDADIKSSETGAFRVPSPGMEEAGCSREMQSSFTRRDLNESPVKSFVSISEATDCLVDFKKQVTVQPGSRTRTKAGRGRRRKF
Turning to B1, the binding result is on record as “no binding”.
